Results from article PMC6593343.
Like-named read-outs stand apart in the source and are kept apart here. These are yes or no findings as the source states them, for the method shown. Binding seen in cells or lysates may run through a third protein. Some entries that bind do so weakly or less than the wild type. Sequences can lack the tags named with a protein.

Chains of the proteins cited; added tags and fusions are not shown.
UniProt P01100: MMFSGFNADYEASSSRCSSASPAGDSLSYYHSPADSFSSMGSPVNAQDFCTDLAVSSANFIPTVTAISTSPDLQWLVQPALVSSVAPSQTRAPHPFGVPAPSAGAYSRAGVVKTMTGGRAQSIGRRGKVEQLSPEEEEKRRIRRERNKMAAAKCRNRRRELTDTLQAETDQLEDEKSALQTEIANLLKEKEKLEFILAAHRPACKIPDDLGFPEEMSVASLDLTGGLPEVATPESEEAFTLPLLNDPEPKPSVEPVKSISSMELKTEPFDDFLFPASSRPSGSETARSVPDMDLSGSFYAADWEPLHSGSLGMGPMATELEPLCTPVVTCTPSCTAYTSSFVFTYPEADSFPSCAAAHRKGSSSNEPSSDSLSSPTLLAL

How the values were obtained:
Experiment in all cases: FRET or BRET; sensitized emission FRET in co-transfected MDA-MB231 cells; donor TQ2 fusions, acceptor SYFP2 fusions; cells arrested 48 h, cycloheximide 50 ug/mL 1 h before FBS, fixed 15 min later with 4% paraformaldehyde; confocal microscopy
[1] = target: T1, PIS (phosphatidylinositol synthase) fused to the acceptor FRET-pair (pSYFP-PIS) (UniProt O14735)
T1 sequence: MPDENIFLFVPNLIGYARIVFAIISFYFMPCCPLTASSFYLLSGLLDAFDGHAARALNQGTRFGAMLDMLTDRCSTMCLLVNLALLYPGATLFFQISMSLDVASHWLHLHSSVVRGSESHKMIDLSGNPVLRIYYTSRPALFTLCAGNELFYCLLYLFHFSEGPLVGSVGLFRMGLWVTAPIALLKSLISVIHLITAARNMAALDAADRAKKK

[2] = target: T2, CDS1 (CDP-diacylglycerol synthase 1) fused to the acceptor FRET-pair (pSYFP-CDS1) (UniProt Q92903)
T2 sequence: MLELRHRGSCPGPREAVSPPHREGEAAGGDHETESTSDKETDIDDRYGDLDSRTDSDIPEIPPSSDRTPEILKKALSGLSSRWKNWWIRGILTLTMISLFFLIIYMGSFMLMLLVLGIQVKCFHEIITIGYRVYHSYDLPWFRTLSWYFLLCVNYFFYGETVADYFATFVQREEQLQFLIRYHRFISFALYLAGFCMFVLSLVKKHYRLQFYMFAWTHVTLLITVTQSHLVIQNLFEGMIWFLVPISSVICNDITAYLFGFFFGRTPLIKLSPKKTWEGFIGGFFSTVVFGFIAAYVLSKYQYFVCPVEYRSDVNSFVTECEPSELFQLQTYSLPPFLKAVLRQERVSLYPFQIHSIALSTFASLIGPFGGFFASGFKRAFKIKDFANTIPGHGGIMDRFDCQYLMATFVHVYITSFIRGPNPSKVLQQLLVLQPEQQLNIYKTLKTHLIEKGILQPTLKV

[3] = substrate: T3, PIS (phosphatidylinositol synthase) fused to the acceptor FRET-pair (pSYFP-PIS) (UniProt O14735); remark: listed apart in the source
T3 sequence: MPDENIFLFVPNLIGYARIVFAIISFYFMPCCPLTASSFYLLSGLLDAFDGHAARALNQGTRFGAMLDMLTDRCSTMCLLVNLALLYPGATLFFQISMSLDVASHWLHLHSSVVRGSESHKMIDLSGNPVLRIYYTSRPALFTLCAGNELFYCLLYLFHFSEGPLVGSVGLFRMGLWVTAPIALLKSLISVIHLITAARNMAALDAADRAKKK

Molecule | binding [1] | binding [2] | binding [3]
c-Fos fused to the donor FRET-pair (pTQ2-c-Fos) (from UniProt P01100 1-380) | no binding | binds | –
full length Fra-1 fused to the donor FRET-pair (pTQ2-Fra-1) (protein, UniProt P15407 1-271) MFRDFGEPGPSSGNGGGYGGPAQPPAAAQAAQQKFHLVPSINTMSGSQELQWMVQPHFLGPSSYPRPLTYPQYSPPQPRPGVIRALGPPPGVRRRPCEQISPEEEERRRVRRERNKLAAAKCRNRRKELTDFLQAETDKLEDEKSGLQREIEELQKQKERLELVLEAHRPICKIPEGAKEGDTGSTSGTSSPPAPCRPVPCISLSPGPVLEPEALHTPTLMTTPSLTPFTPSLVFTYPSTPEPCASAHRKSSSSSGDPSSDPLGSPTLLAL | – | binds | no binding
Fra-1-NA: N-terminus of Fra-1 (aa 1-107) fused to pTQ2 (domain or fragment, UniProt P15407 1-107) MFRDFGEPGPSSGNGGGYGGPAQPPAAAQAAQQKFHLVPSINTMSGSQELQWMVQPHFLGPSSYPRPLTYPQYSPPQPRPGVIRALGPPPGVRRRPCEQISPEEEER | – | binds | –
Fra-1-NB: N-terminus plus basic domain of Fra-1 (aa 1-127) fused to pTQ2 (domain or fragment, UniProt P15407 1-127) MFRDFGEPGPSSGNGGGYGGPAQPPAAAQAAQQKFHLVPSINTMSGSQELQWMVQPHFLGPSSYPRPLTYPQYSPPQPRPGVIRALGPPPGVRRRPCEQISPEEEERRRVRRERNKLAAAKCRNRRK | – | binds | –
Fra-1-BC: basic domain plus the C-terminus of Fra-1 (aa 108-271) fused to pTQ2 (domain or fragment, UniProt P15407 108-271) RRVRRERNKLAAAKCRNRRKELTDFLQAETDKLEDEKSGLQREIEELQKQKERLELVLEAHRPICKIPEGAKEGDTGSTSGTSSPPAPCRPVPCISLSPGPVLEPEALHTPTLMTTPSLTPFTPSLVFTYPSTPEPCASAHRKSSSSSGDPSSDPLGSPTLLAL | – | no binding | –
